The record followed here is PubChem BioAssay AID1963576 (National Center for Advancing Translational Sciences (NCATS), 2024).

The whole screen tested about 46,000 compounds, of which about 60 (0.1%) were called active. Inconclusive results (about 3%) are left out. Calls come from the whole dose curve; as a rule, active = well fitted inhibition curve with a large enough effect; inconclusive = small, poorly fitted or top-dose-only effect; inactive = no such curve, though single readings can be large or run the other way. The list shows a part of the results.

The nature of this assay: Primary qHTS assay for Inhibitors of ovarian cancer metastasis using an organotypic tumor microenvironment (TME) model.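 For activity change, negative = inhibition: plate controls were DMSO wells for no effect and tomatine positive control wells for full effect.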 Note: nearly all actives have a fitted effect of over 65% in size. As to conditions: SKOV3ip1-GFP adhesion/invasion on 3D omental model, fluorescence; series mostly up to 45.8 µM; activity change, negative = inhibition: at the top concentration. A digest of the protocol:
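A 3D layer of primary human omental fibroblasts, mesothelial cells, fibronectin and collagen I, grown 48 hr, received SKOV3ip1-GFP cells in serum-free medium plus compounds at 0.36-46 umol/L. After 2 hr RT and 16 hr 37 C, fixed adherent GFP cells were counted; normalized to DMSO and tomatine.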
On the technique in general: Quantitative high-throughput screening tests each substance at several concentrations.
For the compound `CCc1ccc(CCOc2ccc(CC3SC(=O)NC3=O)cc2)nc1` (stereo not drawn), the “activity change, negative = inhibition” value is inactive: -5.68%.

As for `CCOC(=O)C1=C(CN2CCN(c3ccc(C)cc3C)CC2)NC(=O)NC1c1ccc(OC)cc1` (stereo not drawn), the “activity change, negative = inhibition” value was inactive: -6.09%.

Consider `CCN(CC)S(=O)(=O)c1cccc(C(=O)Nc2ccccc2C(=O)Nc2ccc(OC)cc2)c1`, for which the “activity change, negative = inhibition” value is inactive: -9.67%.

Turning to `O=C(CCCCCCC(=O)Nc1cccnc1)NO`, the “activity change, negative = inhibition” value was inactive: -19%.

For `Cc1ccccc1-c1nc(CN2CCC(C(=O)NC(C)C)CC2)c(C)o1`, the “activity change, negative = inhibition” value was inactive: 1.02%.

Consider `Clc1ccc(CNc2ncnc3onc(-c4ccc(Cl)cc4)c23)cc1`, for which the call was inactive.

As for `COc1ccc(Cl)cc1NC(=O)CCn1nc(C)cc1C`, the “activity change, negative = inhibition” value was inactive: -3.25%.

Turning to `CN(C)c1ccc(C(=O)NCc2ccc3c(c2)CCN3C(=O)c2ccc(Cl)cc2)cc1`, the “activity change, negative = inhibition” value was inactive: 2.96%.

Turning to `CN1C(=O)c2ccccc2Sc2ccc(NC(=O)N3CCN(c4cccc(Cl)c4)CC3)cc21`, the call was inactive.

Take `Cc1cccc(CCNC(=O)CCc2c(C)nc3c(c(C)nn3-c3ccccc3)c2C)c1`: the “activity change, negative = inhibition” value is inactive: 3.55%.

`COc1ccc2c(c1)CC(C(=O)Nc1cc(OC)c(OC)c(OC)c1)CO2` (stereo not drawn): the “activity change, negative = inhibition” value was inactive: 0.812%.

As for `CCc1cccc(C)c1NC(=O)c1cc(S(=O)(=O)N2CCN(c3ccccc3)CC2)ccc1F`, the “activity change, negative = inhibition” value is inactive: 6.98%.

In the case of `CCOC(=O)c1cc2c(=O)n3ccccc3nc2n(C(C)C)c1=NC(=O)c1c(-c2c(F)cccc2Cl)noc1C`, the “activity change, negative = inhibition” value is inactive: 5.02%.

Consider `COc1ccc(OC)c(CNc2ncnc3onc(C)c23)c1`, for which the “activity change, negative = inhibition” value was inactive: 1.3%.

Consider `COc1cc(OC)cc(C(=O)Nc2cccc(-c3cn4ccsc4n3)c2)c1`, for which the result was inactive.

With `COc1ccc(C(=O)NCc2ccc3c(c2)CCN3C(=O)c2ccc(Cl)cc2)c(OC)c1`, the “activity change, negative = inhibition” value is inactive: 3.28%.

On to `CCC1CCCCN1C(=O)Cn1c(=O)n(-c2ccc(Cl)c(Cl)c2)c(=O)c2c(C)c(C(=O)N(C)C)sc21` (stereo not drawn), for which the result was inactive.

On to `CCC1CN(C(=O)N2CCC(C(=O)NCCC3=CCCCC3)CC2)c2ccccc2O1` (stereo not drawn), for which the outcome was inactive.

As to `CCC(Cc1ccccc1)NC(=O)c1cccc(Nc2nc3ccccc3nc2-n2nc(C)cc2C)c1` (stereo not drawn), the “activity change, negative = inhibition” value is inactive: -4.63%.

As for `CC(C)OCCCn1c(SCc2ccccc2Cl)nc2c(sc3ccccc32)c1=O`, the “activity change, negative = inhibition” value is inactive: -23.3%.

As for `CCOc1ccc(NC(=O)CSc2cn(CC(=O)N3CCOCC3)c3ccccc23)cc1`, the outcome was inactive.

With `Cc1ccc(N(CC(=O)N2CCN(c3cccc(C)c3C)CC2)S(=O)(=O)c2c(C)nn(C)c2C)cc1`, the compound was called inactive.

Take `CCN(c1cc(C)cc(C)c1)S(=O)(=O)c1nnc(NC(=O)c2ccccc2C)s1`: the compound was called inactive.

Regarding `CC(=O)Nc1c(C)nn(-c2ccccc2)c1N1CCC(C(=O)NCc2cccc(F)c2)CC1`, the call was inactive.

Regarding `CCOc1ccc(NC(=O)C2CCC(CNS(=O)(=O)c3ccc4c(c3)CCCC(=O)N4)CC2)cc1` (stereo not drawn), the result was inactive.

With `COc1ccc(CCNC(=O)c2cc(=O)[nH]c3ccc(S(=O)(=O)N4CCCCC4)cc23)cc1OC`, the compound was classed as inactive.

`Cc1cccc(NC(=O)c2ccc(Cn3nc(N4CCN(c5ccccc5)CC4)ccc3=O)o2)c1C`: the “activity change, negative = inhibition” value was inactive: -19.3%.

On to `CCOc1ccc(NC(=O)N2CCN(C(=O)c3nsc4ccccc34)CC2)cc1`, for which the “activity change, negative = inhibition” value is inactive: -15.4%.

On to `COc1cc(OC)c2c(C)c(CC(=O)NCc3ccccc3OC)c(=O)oc2c1`, for which the “activity change, negative = inhibition” value is inactive: 6.82%.

As for `CCN(CC)c1nn2c(=O)c(C(=O)NCc3ccccc3Br)cnc2s1`, the “activity change, negative = inhibition” value was inactive: -3.29%.

For the compound `Cn1nc(C(=O)NCc2ccccc2Cl)c2c1-c1ccccc1SC2`, the “activity change, negative = inhibition” value was inactive: 4.63%.

Consider `COc1ccc(-c2cc(C(F)(F)F)nc(SCC(=O)N(C)Cc3ccccc3)n2)cc1`, for which the compound was called inactive.

In the case of `COc1ccc(CCNC(=O)c2ccc3c(c2)CCN3S(=O)(=O)c2ccc(C)cc2)cc1OC`, the “activity change, negative = inhibition” value was inactive: -0.0884%.

For the compound `O=S(=O)(Nc1cccc(-c2ccc(N3CCOCC3)nn2)c1)c1ccc(F)c(C(F)(F)F)c1`, the “activity change, negative = inhibition” value is inactive: 3.76%.

Regarding `CCSc1nc2sc3c(c2c(=O)n1-c1ccc(C)c(Cl)c1)CCN(C(C)=O)C3`, the “activity change, negative = inhibition” value was inactive: -0.732%.

In the case of `O=S(=O)(c1ccc2nc(Nc3ccc(Br)cc3F)ccc2c1)N1CCCCC1`, the “activity change, negative = inhibition” value was inactive: 0.646%.

For the compound `O=C(COc1ccccc1Cl)Nc1ccc2nc(SCC(=O)N3CCOCC3)sc2c1`, the compound was classed as inactive.

In the case of `Cc1ccc(NC(=O)CSc2nccn2-c2ccccc2)cc1`, the call was inactive.

As to `CCc1ccc(-c2[nH]nc3nc(-c4cc(OC)ccc4OC)cc(C(=O)O)c23)cc1`, the “activity change, negative = inhibition” value was inactive: -16.2%.

On to `COC(=O)c1sccc1S(=O)(=O)N(CC(=O)Nc1cc(F)ccc1F)c1ccc(C)c(C)c1`, for which the “activity change, negative = inhibition” value is inactive: -5.17%.

Consider `COC(=O)c1ccc2c(c1)N(CC(=O)Nc1ccc(C)cc1Cl)C(=O)c1ccccc1S2`, for which the result was inactive.

As to `COc1ccc(C)cc1NC(=O)CN(C)S(=O)(=O)c1ccc2[nH]c(=O)oc2c1`, the “activity change, negative = inhibition” value was inactive: -17.9%.

`CCc1nccn1S(=O)(=O)c1cc(Br)ccc1Br`: the “activity change, negative = inhibition” value is inactive: 9.09%.

`Cc1cc(Cl)ccc1OCCSc1nnc(-c2cccs2)o1`: the “activity change, negative = inhibition” value is inactive: 0.52%.

As to `COc1cc(F)c(C(C)C)cc1-c1ccc(C(F)(F)F)cc1CN1C(=O)O[C@H](c2cc(C(F)(F)F)cc(C(F)(F)F)c2)[C@@H]1C`, the “activity change, negative = inhibition” value was inactive: -14.1%.

Consider `O=C(CCNS(=O)(=O)c1ccc2c(c1)CCCC(=O)N2)NCc1ccc(Cl)cc1`, for which the result was inactive.

On to `Cc1ccccc1Cn1cc(S(=O)(=O)c2ccc(F)cc2)c(=O)c2cc3c(cc21)OCO3`, for which the outcome was inactive.

For `Cc1ccc(NC(=O)Cn2c(=O)n(CCCCC(=O)NCCc3ccccc3)c(=O)c3ccccc32)cc1`, the “activity change, negative = inhibition” value was inactive: 6.77%.
